Reference: the supplement of paper PMC7826260
This is one part of the list. Viral Rep nickase domains cut single-stranded DNA in vitro for 1 h at 37 °C with 3 µM enzyme; only the middle of the 90-letter strands is printed. A value is the log2 ratio of uncut reads to the pool without enzyme; strong cutting gives strongly negative numbers. There is no active / inactive call. Reads are scaled to the total; where an enzyme cuts many sequences, the uncut ones exceed 0.

These sequences were tested on T1, Rep nickase domain of tomato golden mosaic virus (assay: uncleaved DNA left, log2 of reads against the no-enzyme library (log2 ratio); higher = less cleavage (more negative = more Rep cleavage of the k-mer); sequences stand for … in CTCGTCCG…ACCGGAGA).
T1 sequence (residues 1-124 of Rep, tag left off): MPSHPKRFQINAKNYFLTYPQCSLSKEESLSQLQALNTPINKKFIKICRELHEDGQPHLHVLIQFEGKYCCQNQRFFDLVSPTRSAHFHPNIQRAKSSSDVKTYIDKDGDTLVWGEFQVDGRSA
Method: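 A pool of 90-nt single-stranded DNAs with seven random bases just before the constant AC of the nick site (name = the seven bases) was cut by 3 µM recombinant His6-SUMO-tagged Rep nickase domain (300 nM DNA, 50 mM HEPES pH 8.0, 50 mM NaCl, 1 mM MnCl2, 1 h, 37 °C, three replicates). Uncut DNA was amplified and sequenced.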

Sequence | uncleaved DNA left (log2)
CCGGCTC | -0.138
TCCCACT | -0.287
ATCTAAC | 0.03
TTTGACG | -0.00345
GCTGCCA | 0.0465
ATTGGCC | 0.146
ACTATCA | -0.0619
CAGGTCT | 0.0266
TCCAGAG | -0.0573
GTAAGTA | 0.11
TATGAGT | -0.0944
TGGCGCT | -0.175
GAACGTA | 0.0196
AGAAATT | 0.0733
GTTCTGT | -0.002
GGCCCGG | 0.127
GCTATGA | 0.0724
CCGAGTA | -0.0687
CGCTCGC | -0.0214
ATTATTC | 0.0185

Sequence | uncleaved DNA left (log2)
CGTAAGG | 0.17
AACACAT | 0.0355
GACTCAT | -0.0438
GCCTCAA | -0.0237
CGTTAGG | 0.0901
ATGCGCT | -0.176
CGGACGC | 0.0225
CGATTAG | 0.196
GTCACGT | 0.138
CATTGAT | -0.0567
GTGAAAC | 0.0973
CTTATTC | -0.136
TGTATCT | 0.0104
AGATGGG | 0.0378
GAGAAAT | 0.106
TGGAACT | 0.0104
ATAACGG | 0.0385
CGACATA | -0.0621
ATGATTA | 0.0447
GGTGGCA | 0.114
